# Reference: ChEMBL document CHEMBL4888484, “Replenishing the malaria drug discovery pipeline: Screening and hit evaluation of the MMV Hit Generation Library 1 (HGL1) against asexual blood stage Plasmodium falciparum ,using a nano luciferase reporter read-out” (2022)
# The campaign covered roughly 150,000 compounds. About 540 (0.36%) showed an effect of 50% or more. Some of the results follow.
# System: Plasmodium falciparum
# Assay: Primary screen in NF54 nanoGlo assay, in single point, at 2uM, 72h; a lower Z score goes with more inhibition
# Assay type: functional, Erythrocyte
# Conditions: timepoint 72 hour
SMILES,% Inhibition,Z score
Cc1ccccc1C(=O)N1CCC[C@H](Oc2ncccn2)C1,2%,-0.31
CC(C)=CCN1CCN(C(=O)c2cc3ccccc3[nH]2)[C@H]2CS(=O)(=O)C[C@H]21,-9%,1.79
O=C(Nc1ccc(F)c(Cl)c1)N1CCC[C@H](Cn2c(C3CC3)nc3cccnc32)C1,2%,-0.37
Cc1c(C(=O)N[C@H]2CCCc3ccccc32)sc2ncnc(N3CCCCCC3)c12,-19%,1.78
O=C(c1ccc(N2CCCC2=O)cc1)N1CCC[C@H](c2nc3ccccc3s2)C1,-24%,3.46
Cc1ccc(C(=O)N[C@@H](C)c2ncc(C(=O)O)s2)s1,1%,-0.24
Cc1cc(-c2nc3cccnc3s2)ccc1NS(=O)(=O)c1c(C)n[nH]c1C,-8%,1.46
Cn1nccc1C(=O)N1CCC[C@H](CCc2ccccc2)C1,-13%,2.52
COCCc1nc(Cn2nccn2)n(-c2cccc3c2CCC3)n1,-19%,2
CCO[C@@H](C)C(=O)NCc1ccncc1,-6%,0.68
CCc1ccc(CN2CC[C@@](O)(CO)C2)s1,-11%,1.75
CN(C)C(=O)NCc1cc2n(n1)CCCN(Cc1ccc3occc3c1)C2,10%,-1.36
COc1cc(OC)cc([C@H]2CCN(C(=O)c3ccoc3)C2)c1,-1%,0.11
COc1ccc(-c2noc(CN(C)C(C)C)n2)nn1,-3%,0.55
COc1cc(NC(=O)N2CC[C@H](c3nnc(C)o3)C2)cc(OC)c1,33%,-3.78
CC[C@](C)(NCC#Cc1ccc(C(F)(F)F)cc1)C(N)=O,36%,-4.06
N#Cc1nnc2ccccc2c1Oc1ccc2ncccc2c1,-12%,2.3
CC[C@H](NCc1n[nH]c(N)n1)C1CCCC1,2%,-0.36
C[C@H](Oc1ccccc1)C(=O)N1CCC(Oc2cccc3cccnc23)CC1,-9%,1.73
CCN1CC[C@@]2(CCC1=O)CN(C(=O)c1ccc[nH]1)CCN2C,-16%,1.45
Cc1ccc(-c2nn(C)cc2C(=O)Nc2nccnc2C(C)C)o1,-1%,0.14
COc1ccc(-c2cc(CN(CC(C)C)C(=O)c3ccco3)no2)c(OC)c1,-9%,1.13
Cc1cnccc1CNC(=O)COC1CCCCC1C (stereo not drawn),-13%,2.24
Cc1oc(-c2ccc(-c3ccccc3)cc2)nc1CN1CCCC[C@@H]1CCCO,-10%,1.58
